Where a chain is given by its changes, count along the chain named. Names may count otherwise.
T1: CD80:Fc loaded on anti-human capture sensor (ForteBio Octet AHC) (human, UniProt P33681 35-242)
T1 sequence: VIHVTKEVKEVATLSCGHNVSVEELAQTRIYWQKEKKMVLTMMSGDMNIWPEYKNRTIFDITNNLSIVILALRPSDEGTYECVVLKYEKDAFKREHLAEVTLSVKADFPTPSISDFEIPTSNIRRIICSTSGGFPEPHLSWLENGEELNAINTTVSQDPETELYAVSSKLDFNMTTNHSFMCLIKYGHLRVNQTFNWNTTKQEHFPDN

B1: variant PD-L1 IgV-Fc A33D/N45T/N78I (IgV SEQ ID NO 276) (Fc fusion)
chain: FTVTVPKDLYVVEYGSNMTIECKFPVEKQLDLDALIVYWEMEDKTIIQFVHGEEDLKVQHSSYRQRARLLKDQLSLGIAALQITDVKLQDAGVYRCMISYGGADYKRITVKVNAAAA[no letters for human IgG1 Fc with C220S R292C N297G V302C (EU numbers)]
B2: variant PD-L1 IgV-Fc A33D/S75P (IgV SEQ ID NO 285) (Fc fusion)
chain: B1 chain with T45N, S75P, I78N, M97V
B3: variant PD-L1 IgV-Fc I20L/F49S (IgV SEQ ID NO 256) (Fc fusion)
chain: B1 chain with I20L, D33A, T45N, F49S, I78N

Each binder was assayed against T1, CD80:Fc loaded on anti-human capture … (assay: ForteBio Octet, CD80:Fc on AHC sensor, 100 nM).
With B1 the “CD80:Fc Response” value was 1.59. B2 was tested, and the “CD80:Fc Response” value was 0.43. With B3 the “CD80:Fc Response” value was 0.58.

What follows are binders tested against T2, PD-1:Fc loaded on anti-human capture sensor (ForteBio Octet AHC) (human, UniProt Q15116 partial chain) (assay: ForteBio Octet, PD-1:Fc on AHC sensor, 100 nM).
T2 sequence (Q15116 25-167): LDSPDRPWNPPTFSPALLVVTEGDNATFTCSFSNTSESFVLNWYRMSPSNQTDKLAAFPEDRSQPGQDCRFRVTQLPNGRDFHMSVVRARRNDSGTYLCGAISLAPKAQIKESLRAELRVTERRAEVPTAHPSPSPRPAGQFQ
B1 was tested, and the “PD-1:Fc Response” value was 2.34. In the case of B2, the “PD-1:Fc Response” value is reported as 0.72. With B3 the “PD-1:Fc Response” value was 0.79.

The binders below were run against T1, CD80:Fc loaded on anti-human capture … (assay: ForteBio Octet, CD80:Fc response vs WT PD-L1 IgV-Fc).
In the case of B1, the “Fold over WT PD-L1 IgV-Fc” value is reported as 2 fold. B2 was tested, and the “Fold over WT PD-L1 IgV-Fc” value was 0.5 fold. With B3 the “Fold over WT PD-L1 IgV-Fc” value was 0.7 fold.

These binders were tested against T2, PD-1:Fc loaded on anti-human capture … (assay: ForteBio Octet, PD-1:Fc response vs WT PD-L1 IgV-Fc).
In the case of B1, the “Fold over WT PD-L1 IgV-Fc” value is reported as 1.7 fold. With B2 the “Fold over WT PD-L1 IgV-Fc” value was 0.5 fold. B3 was tested, and the “Fold over WT PD-L1 IgV-Fc” value was 0.6 fold.

What follows are binders tested against T2, PD-1:Fc loaded on anti-human capture … (assay: ForteBio Octet, PD-1:Fc response over CD80:Fc response).
For B1, the “PD-1:CD80 ratio” value was 1.5 ratio. For B2, the “PD-1:CD80 ratio” value was 1.7 ratio. B3 was tested, and the “PD-1:CD80 ratio” value was 1.4 ratio.

Source: patent publication US20260062456A1 (ALPINE IMMUNE SCIENCES, published 2026)
